Measurements: FireProtDB (doi:10.1529/biophysj.107.108761)

Conditions: Homo sapiens, 23 °C, GdnHCl, Fluorescence, reversible: Unknown

Interleukin-8 wild type (sequence left out)
denaturant midpoint (higher = more stable) (pH 5.2, Acetate 50 mM): 3.9 M and 1.5 M | denaturant midpoint (higher = more stable) (pH 7, Phosphate 50 mM): 4.3 M and 3.4 M and 1.5 M | unfolding free energy (pH 7, Phosphate 50 mM): 6 kcal/mol and 3.2 kcal/mol and 2.2 kcal/mol

Where “and” joins values, the source holds several entries; their conditions need not be identical. Identical values can stand only once.
